Experimental data taken from PubChem BioAssay (Tox21).
“And” between values parts separate entries of the source, which are not always exact repeats. Equal values may be shown once. This list was built around the results that the source calls inconclusive (neither active nor inactive); the mix of calls is not that of the screen. For some of these results: Where the call is inconclusive, the potency comes from a doubtful curve fit. Some compounds were tested as several samples or in several runs, with calls that do not always agree. The source made the active and inactive calls. Unless noted, calls come from the whole dose curve.

What was measured:
[1] = qHTS assay to identify small molecule antagonists of the sonic hedgehog signaling (Shh) pathway (AID 1259369); note: nearly all actives have a fitted effect of over 45% in size; note: potency is the fitted concentration of half-maximal effect; for activity change, negative = inhibition: % is set by controls: 0 for no effect and ±100 for the full control effect
In short: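 Stable Gli1-Luc reporter NIH/3T3 clone; quantitative HTS in stimulated mode with conditioned medium. Luminescence measured after 24hr compound treatment at 37 C.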

[2] = qHTS assay to identify small molecule antagonists of the sonic hedgehog signaling (Shh) pathway - cell viability counter screen (AID 1259367; active = well fitted curve in the direction sought with a large enough effect in the repeat runs; inconclusive = weak or mixed curves; inactive = no such curve, though single readings can be large; an effect the other way counts as inactive or inconclusive; note: potency is the fitted concentration of half-maximal effect; nearly all actives have a fitted effect of over 55% in size)
In short: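 CellTiter-Fluor signal in conditioned medium-stimulated 3T3 Gli1-Luc cells, 23 hr compound exposure, 37C.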

[3] = qHTS assay to identify small molecule agonists of the estrogen receptor beta (ER-beta) signaling pathway - cell viability counter screen (AID 1259380; active = well fitted curve in the direction sought with a large enough effect in the repeat runs; inconclusive = weak or mixed curves; inactive = no such curve, though single readings can be large; an effect the other way counts as inactive or inconclusive; note: nearly all actives have a fitted effect of over 30% in size; note: potency is the fitted concentration of half-maximal effect)
In short: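 Steps: plate ER-beta-UAS-bla HEK293T cells, rest 6 hr; add compounds in DMSO; incubate 16 hr at 37C, 5% CO2; add FRET substrate 2 hr; add CellTiter-Glo, wait 30 min at room temperature; read luminescence.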

[4] = target: Estrogen receptor beta (Homo sapiens) (UniProt Q92731); test: qHTS assay to identify small molecule agonists of the estrogen receptor beta (ER-beta) signaling pathway (AID 1259377; active = well fitted activation curve with a large enough effect in the signal ratio in the repeat runs, not every such curve was filed as active; inconclusive = weak or mixed curves, or effect the other way; the % refers to the signal ratio; note: potency is the fitted concentration of half-maximal effect; for activation: % is set by controls: 0 for no effect and ±100 for the full control effect); conditions: ER-beta-UAS-bla HEK293T, beta-lactamase FRET ratio, 16 h; activation: at 92.4 µM (top of the series) unless noted
In short: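 Screening used GripTite ER-beta-UAS-bla cells held in 2% charcoal-stripped FBS medium. After overnight (16 hr) compound incubation at 37C, beta-lactamase activity was detected with a FRET substrate by fluorescence.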

[5] = target: Estrogen receptor beta (Homo sapiens) (UniProt Q92731); test: qHTS assay to identify small molecule antagonists of the estrogen receptor beta (ER-beta) signaling pathway (AID 1259378; active = well fitted inhibition curve with a large enough effect in the signal ratio in the repeat runs, not every such curve was filed as active; inconclusive = weak or mixed curves, or effect the other way; inactive = no such curve, though single readings can be large or run the other way; the % refers to the signal ratio; note: potency is the fitted concentration of half-maximal effect; for activity, negative = inhibition: % is set by controls: 0 for no effect and ±100 for the full control effect); conditions: ER-beta-UAS-bla HEK293T, beta-lactamase FRET ratio, 16 h; activity, negative = inhibition: at 92.4 µM (top of the series) unless noted
In short: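 Antagonist mode: compounds added to beta-lactamase reporter HEK293T ER-beta-UAS cells stimulated with E2 (1nM final), 16 hr at 37C. LiveBLAzer B/G FRET substrate, 2 hours room temperature, fluorescence read-out.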

[6] = qHTS assay to identify small molecule antagonists of the estrogen receptor beta (ER-beta) signaling pathway - cell viability counter screen (AID 1259382; active = well fitted curve in the direction sought with a large enough effect in the repeat runs; inconclusive = weak or mixed curves; inactive = no such curve, though single readings can be large; an effect the other way counts as inactive or inconclusive; note: nearly all actives have a fitted effect of over 55% in size; note: potency is the fitted concentration of half-maximal effect)
In short: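 Viability is scored by CellTiter-Glo luminescence (30 min, room temperature) in ER-beta-UAS-bla HEK293T wells already read for reporter fluorescence. Compound exposure lasts 16 hr at 37C alongside 1nM 17-beta-estradiol in charcoal-stripped serum medium.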

[7] = target: Thyrotropin receptor (Homo sapiens) (UniProt P16473); test: qHTS assay to identify small molecule antagonists of the thyroid stimulating hormone receptor (TSHR) signaling pathway (AID 1259385); conditions: TSHR-HEK293 cAMP HTRF, TSH-stimulated antagonist mode; activity change, negative = inhibition: at 92.4 µM (top of the series) unless noted; note: nearly all actives have a fitted effect of over 20% in size; note: potency is the fitted concentration of half-maximal effect
In short: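 Antagonist mode: compound-treated TSHR-expressing HEK293 cells were stimulated with 1.5 ng/mL TSH (final) in presence of Ro20-1724 for 30 min at RT. HTRF cAMP detection after 1 h; each compound tested at 15 concentrations, triplicate.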

[8] = qHTS assay to identify small molecule agonists of the estrogen receptor alpha (ER-alpha) signaling pathway in the presence of an antagonist - cell viability counter screen (AID 1259386; active = well fitted curve in the direction sought with a large enough effect in the repeat runs; inconclusive = weak or mixed curves; inactive = no such curve, though single readings can be large; an effect the other way counts as inactive or inconclusive;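 note: potency is the fitted concentration of half-maximal effect; cells exposed to compounds for 22 h at 37 °C before the viability read; nearly all actives have a fitted effect of over 30% in size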)
In short: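 In this counter screen, compound effects on VM7Luc4E2 viability were tested in the presence of the antagonist ICI-182,780 at 10.0nM final. Compounds were dosed at 15 concentrations, exposure lasted 22hr, and the CellTiter-Fluor signal was read.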

[9] = qHTS assay to identify small molecule agonists of the androgen receptor (AR) signaling pathway in the presence of an antagonist - cell viability counter screen (AID 1259379; active = well fitted curve in the direction sought with a large enough effect in the repeat runs; inconclusive = weak or mixed curves; inactive = no such curve, though single readings can be large; an effect the other way counts as inactive or inconclusive; note: potency is the fitted concentration of half-maximal effect; nearly all actives have a fitted effect of over 25% in size)
In short: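 Nilutamide-containing (3.0uM final) MDA-kb2 cultures, 3,000 cells/well, were treated with compounds across 15 concentrations. After 16 hr at 37C with no CO2, cell viability was determined by CellTiter-Fluor fluorescence in the luciferase assay wells.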

[10] = qHTS assay to identify small molecule agonists or antagonists of the thyroid stimulating hormone receptor (TSHR) signaling pathway - wild type cell line counter screen (AID 1259384); conditions: HEK293 wild type, cAMP HTRF counter-screen; cAMP activity change: at 92.4 µM (top of the series), stronger effect = higher value unless noted; note: % is set by controls: 0 for no effect and ±100 for the full control effect
In short: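 Counter screen in untransfected Hek293: compounds (15-point titration, triplicate) plus phosphodiesterase inhibitor Ro20-1724 added after 18 h plating; 30 min RT. Intracellular cAMP via competitive d2/cryptate immunoassay, 1 h incubation.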

[11] = qHTS assay to identify small molecule agonists of the sonic hedgehog signaling (Shh) pathway (AID 1259368); note: potency is the fitted concentration of half-maximal effect; nearly all actives have a fitted effect of over 15% in size
In short: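 Quantitative high-throughput format using a Gli1-driven firefly luciferase reporter line derived from NIH/3T3 cells. After a 24 hr compound treatment at 37 C and 5% CO2, luminescence reported Gli1 response element activity.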
Tags give direction and shape of the fitted curve or compound fluorescence and quenching.

UniProt P16473, sequence (P16473 whole entry, looked up): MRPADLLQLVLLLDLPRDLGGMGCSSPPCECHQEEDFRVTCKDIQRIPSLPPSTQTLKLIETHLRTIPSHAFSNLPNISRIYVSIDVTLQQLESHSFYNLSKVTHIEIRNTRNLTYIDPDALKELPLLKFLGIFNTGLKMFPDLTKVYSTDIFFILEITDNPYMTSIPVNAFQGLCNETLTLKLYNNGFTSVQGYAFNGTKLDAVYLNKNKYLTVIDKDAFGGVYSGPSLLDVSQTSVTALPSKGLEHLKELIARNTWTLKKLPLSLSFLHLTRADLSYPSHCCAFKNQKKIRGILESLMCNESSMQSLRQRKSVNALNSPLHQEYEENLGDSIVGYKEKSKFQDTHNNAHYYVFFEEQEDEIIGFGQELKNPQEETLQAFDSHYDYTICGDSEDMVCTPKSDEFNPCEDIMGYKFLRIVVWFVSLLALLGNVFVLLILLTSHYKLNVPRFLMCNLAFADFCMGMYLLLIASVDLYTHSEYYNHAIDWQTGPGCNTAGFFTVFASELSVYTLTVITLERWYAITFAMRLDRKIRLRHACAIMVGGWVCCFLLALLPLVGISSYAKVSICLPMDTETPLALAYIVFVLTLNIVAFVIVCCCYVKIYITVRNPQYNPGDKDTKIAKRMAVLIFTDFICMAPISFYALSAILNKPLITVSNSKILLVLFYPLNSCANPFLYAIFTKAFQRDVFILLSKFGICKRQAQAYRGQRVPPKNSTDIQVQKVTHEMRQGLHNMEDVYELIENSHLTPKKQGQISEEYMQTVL
UniProt Q92731, sequence (Q92731 whole entry, looked up): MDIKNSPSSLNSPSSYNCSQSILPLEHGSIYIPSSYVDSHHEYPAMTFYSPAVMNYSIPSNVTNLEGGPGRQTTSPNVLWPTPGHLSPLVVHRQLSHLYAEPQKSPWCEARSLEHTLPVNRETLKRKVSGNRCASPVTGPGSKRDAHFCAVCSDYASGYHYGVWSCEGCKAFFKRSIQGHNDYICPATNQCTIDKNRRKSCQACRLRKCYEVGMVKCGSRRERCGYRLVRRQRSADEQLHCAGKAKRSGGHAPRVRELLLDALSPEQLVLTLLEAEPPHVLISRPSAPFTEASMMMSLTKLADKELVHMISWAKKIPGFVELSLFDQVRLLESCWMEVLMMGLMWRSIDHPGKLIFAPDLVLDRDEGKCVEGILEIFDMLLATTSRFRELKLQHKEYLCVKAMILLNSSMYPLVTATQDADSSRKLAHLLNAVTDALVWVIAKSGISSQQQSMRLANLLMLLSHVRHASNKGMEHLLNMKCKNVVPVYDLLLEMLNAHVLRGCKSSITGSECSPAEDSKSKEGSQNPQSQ

CCc1cccc(C)c1N
Potency [1]: inconclusive: 0.938 µM [inhibitor, single point]

O=C1CCC/C=C\CCCCCCCCCC1
Potency [2]: inconclusive: 68.6 µM [cytotoxic, single point] | Potency [1]: inconclusive: 38.6 µM [inhibitor, partial curve, poor fit] | Potency [3]: inconclusive: 77 µM [cytotoxic, single point]

c1ccc2occc2c1
Potency [1]: inconclusive: 61.1 µM [inhibitor, partial curve, poor fit] | Potency [3]: inconclusive: 68.6 µM [rising, partial curve, poor fit]

CCCC(c1cc(C(C)(C)C)c(O)cc1C)c1cc(C(C)(C)C)c(O)cc1C
Potency [2]: active: 17.4 µM | Potency [4]: inconclusive: 13.9 µM [falling, full curve] | Potency [5]: inconclusive: 22 µM [cytotoxic, full curve] | Potency [6]: active: 13.9 µM | Potency [7]: inconclusive: 24.6 µM [rising, partial curve] | Potency [8]: active: 61.9 µM

CC1=NN(c2ccccc2)C(=O)C1
Potency [2]: inconclusive: 69 µM [cytotoxic, partial curve, poor fit] | Potency [1]: inconclusive: 69 µM [inhibitor, single point] | activation [4]: inconclusive: 2.53% | activity, negative = inhibition [5]: inconclusive: -45.5%

CCCCCCCCCC
Potency [1]: inconclusive: 77 µM [inhibitor, single point]

CC(=O)Nc1ccc(C(=O)O)cc1
Potency [1]: inactive | activity, negative = inhibition [5]: inconclusive: 1.12%

CC(=O)OCCOC(C)=O
Potency [1]: inactive | activity, negative = inhibition [5]: inconclusive: 24.8%

O=C1OC2(c3ccccc31)c1cc(Br)c(O)c(Br)c1Oc1c2cc(Br)c(O)c1Br
Potency [2]: inconclusive: 29.8 µM [cytotoxic, partial curve, poor fit] | Potency [1]: inconclusive: 2.47 µM [inhibitor, single point] | Potency [7]: active: 24.7 µM and active: 21.1 µM

C=C(C)C(=O)OCCC[Si](OC)(OC)OC
Potency [1]: inactive | Potency [5]: inactive

COc1ccc(N)c(C)c1
Potency [1]: inactive | activation [4]: inconclusive: 10.4% | Potency [5]: inactive

Clc1nc(C(Cl)(Cl)Cl)c(Cl)c(Cl)c1Cl
Potency [1]: inconclusive: 48.6 µM [inhibitor, partial curve, poor fit] | activity, negative = inhibition [5]: inconclusive: -10.8% | Potency [6]: inconclusive: 4.86 µM [cytotoxic, full curve, poor fit] | Potency [7]: inconclusive: 34.4 µM [falling, partial curve]

CCCCOCCOCCOC(C)=O
Potency [1]: inconclusive: 2.67 µM [inhibitor, single point] and inconclusive: 2.73 µM [inhibitor, single point]

COc1cc(Cc2cnc(N)nc2N)cc(OC)c1OC
Potency [1]: inconclusive: 15.3 µM [inhibitor, full curve] | Potency [4]: inconclusive: 7.5 µM [falling, partial curve, poor fit] | Potency [5]: inactive | Potency [6]: inactive

Cc1cc(F)ccc1-c1cc(N2CC[C@@H](O)[C@H]2CO)ncc1N(C)C(=O)C(C)(C)c1cc(C(F)(F)F)cc(C(F)(F)F)c1
Potency [2]: inconclusive: 53.6 µM [cytotoxic] | Potency [1]: inconclusive: 47.8 µM [inhibitor, partial curve, poor fit] | Potency [4]: inconclusive: 53.6 µM [falling, single point] | Potency [5]: active: 19 µM | Potency [3]: active: 47.8 µM | Potency [6]: active: 53.6 µM

N/C(=N\N=C\c1ccc(Cl)cc1)N/N=C/c1ccc(Cl)cc1
Potency [1]: inconclusive: 21.1 µM [inhibitor, partial curve] | Potency [5]: inconclusive: 26.6 µM [inhibitor, partial curve] | Potency [3]: active: 29.8 µM | Potency [6]: inconclusive: 29.8 µM [cytotoxic, single point] | activity change, negative = inhibition [7]: inconclusive: -12.6% [at 42.5 µM]

CC(=O)O[C@]1(C(C)=O)CC[C@H]2[C@@H]3C=C(C)C4=CC(=O)CC[C@]4(C)[C@H]3CC[C@@]21C
Potency [1]: inconclusive: 10.9 µM [inhibitor, partial curve] and inconclusive: 7.5 µM [inhibitor, single point] | Potency [9]: inconclusive: 54.5 µM [cytotoxic, partial curve] | Potency [3]: inactive

CCn1c2ccccc2c2cc(N)ccc21
Potency [1]: active: 15.2 µM and inactive and inconclusive: 611 nM [inhibitor, single point] | Potency [5]: inconclusive: 19.3 µM [inhibitor, full curve] | activity, negative = inhibition [5]: inconclusive: -23.9% | Potency [3]: inconclusive: 30.6 µM [cytotoxic, partial curve, poor fit] | Potency [6]: inconclusive: 19.3 µM [cytotoxic, full curve, poor fit] | cAMP activity change [10]: inconclusive: -1.99% | Potency [7]: inconclusive: 42.8 µM [falling, partial curve, poor fit] | Potency [8]: inconclusive: 67.9 µM [cytotoxic] and inconclusive: 17.2 µM [cytotoxic, partial curve]

CC1=C(/C=C/C(C)=C/C=C/C(C)=C\C(=O)O)C(C)(C)CCC1
Potency [11]: inconclusive: 27.4 µM [activator, partial curve] | Potency [1]: inconclusive: 9.72 µM [inhibitor, full curve] | Potency [9]: inconclusive: 54.6 µM [cytotoxic, partial curve] | Potency [3]: active: 9.72 µM

CN(C)c1ccc(SC#N)cc1
Potency [2]: inconclusive: 68.6 µM [cytotoxic, single point] | Potency [1]: active: 48.6 µM | activity, negative = inhibition [5]: inconclusive: -35.2% | Potency [9]: inconclusive: 48.6 µM [cytotoxic, partial curve, poor fit] | Potency [6]: inconclusive: 54.5 µM [cytotoxic, partial curve, poor fit]

Oc1ccc(Cl)cc1C1CCCC1
Potency [1]: inconclusive: 77 µM [inhibitor, partial curve, poor fit] | Potency [5]: inconclusive: 24.3 µM [rising, partial curve, poor fit] | Potency [3]: inconclusive: 77 µM [cytotoxic, single point]

c1ccc2n[nH]nc2c1
Potency [1]: inactive

c1ccc(-c2ccc(C(c3ccccc3)n3ccnc3)cc2)cc1 (configuration not stated)
Potency [1]: inconclusive: 13.3 µM [inhibitor, partial curve] | Potency [4]: inconclusive: 33.5 µM [falling, single point] | Potency [5]: inconclusive: 26.6 µM [cytotoxic, partial curve] | Potency [3]: active: 29.8 µM | Potency [6]: inconclusive: 53.1 µM [cytotoxic, single point] | Potency [7]: inconclusive: 26.6 µM [falling, partial curve, poor fit]

Brc1ccccc1-c1ccccc1
Potency [3]: inconclusive: 6.49 µM [cytotoxic, single point] | Potency [7]: inconclusive: 72.8 µM

COc1ccc(COC(C)=O)cc1
Potency [10]: inactive
